This is an account of results in the RNAGym collection of RNA variant scans (doi:10.7554/elife.90254).

B1: OR4K15 (parent)
chain: GUUAACGGUCAUAGGCCAUGGAAACUAGGAGCACCAUUUCGCUGCCAGUGAAGAAAUGAACAAAGAAAAUCUGGGCCAGGCAGGCAUCAAAAGAAAUAGUCUUGCGCUCAACCAGAAAGUCUGUAAUCAUUUUAAGGGUA

The source gives no read counts; variants with many changes may rest on few reads.

The variants in the data set derive from B1. Put plainly: self-cleavage, relative activity (ratio to wild type); higher = more cleavage; in vitro, sequencing; the parent is a self-cleaving ribozyme.
Take GUUAACAGUCAUAGGCCAUGGAAACUAGGAGCACCAUUUCGCUGCCAGUGAAGAAAGGAACAAAGAAAAUCUGGGCCAGGCAGGCAUCAAAAGAAAUAGUCUUGCGCUCAACCAGAAAGUCUGUAAUCAUUCUAAGGGUA: the self-cleavage was found to be 1.46.

Take GUUAACAGUCAUAGGCCAUGGAAACUAGGAGCACCAUUUCGCCGCCAGUGAAGAAAUGAACAAAGAAAAUCUGGGCCAGGCAGGCAUCAAAGGAAACAGUCUUGCGCUCAACCAGAAAGUCUGUAAUCAUUUUAAGGGUA: the self-cleavage was 1.09.

GUUAACAGUCAUAGGCCAUGGAAACUAGGAGCACCAUUUCGCUGCCAGUGAAGAAAUGAACAAAGAAAGUCUGGGCUAGGCAGGCAUCAAGAGAAAUAGUCUUGCGCUCAACCAGAAAGUCUGUAAUCAUUUUAAGGGUA: the self-cleavage was 1.9.

GUUAACAGUCAUAGGCCAUGGAAACUAGGAGCACCAUUUCGCUGCCAGUGAAGAAAUGAACAAAGACAAUCUGGGCCAGGCAGGCAUCAAAAGAAAUAGUCUUGCGCUCAACCAGAAAGUCUGUAAUCACUUUAAGGGUA: the self-cleavage came out at 1.82.

Turning to GUUAACAGUCAAAGGCCAUGGAAACUAGGAGCACCAUUUCGCUGCCAGUGAAGAAAUGAACAAAGAAACUCUGGGCCAGGCAGGCAUCAGAAGAAAUAGUCUUGCGCUCAACCAGAAAGUCUGUAAUCAUUUUAAGGGUA, the self-cleavage amounted to 1.

As for GUUAACAGUCAUAGGCCAUGGAAACUAGGAGCACCAUCUCGCUGCCAGUGAAGAAAUGAACAAAGAAAAUCUGGGCCAGGCUGGCAUCAAAAGAAAUAGUCUUGCGCUCAACCAGAAAGUCUGUAGUCAUUUUAAGGGCA, the self-cleavage turned out to be 0.13.

In the case of GUUAACAGUCAUAGGCCAUGGAAACUAGGAGCACCAUUUCGCUGCCAGUGAAGAAAUGAACGAAGAAAAUCUGGGCCAGGCAGGCAUCAAAAGAAAUAGUCUUGCGCUCAACCAGAAAGUCUGUAACCAUUUUAAGGGUA, the self-cleavage worked out at 1.55.

With GUUAACAGUCAUAGGCCAUGGAAACUAGGAGCACCAUUCCGCUGCCAGUGAAGAAAUGAACAAGGAAAAUCUGGGCCAGGCAGGCAUCAAAAGAAAUAGUCUUGCGCUCAACCAGAAAGUCUGUAACCAUUUUAAGGGUA, the self-cleavage was 1.32.

As to GUUAACAGUCAUAGGCCAUGGAAACUAGGAGCACCAUUUCGCUGCCAGUGAAGAAAUGAACAAAGAAAAUCUGCGCCAGGCAGGCAUCAAAAGAAAUAGUCUUGCGCUCAACCAGAAAGUCUGUAAUCAUUUUAAAGGUA, the self-cleavage came out at 0.37.

In the case of GUUAACAGUCAUAUGCCAUGGAGACUAGGAGCACCAUUUCGCUGCCAGUGAAGAAAUGAACAAAGAAAAUCUGGGCCAGGCAGGCAUCAAAAGAAAUAGUCUUGCGCUCAACCGGAAAGUCUGUAAUCAUUUUAAGGGUA, the self-cleavage is 0.31.

GUUAACAGUCAUAGGCCAUGGAAACUAGGAGCACCAUUUCGCUGCCAGUGAAGAAAUGAACAAAGAAAAUCUGGGUCAGGCAGGCAUCAAAAGAAAUAGUCCUGCGCUCAACCAGAAAGUCUGUAAUCAUUUUAAGGGUA: the self-cleavage came to 0.11.

On to GUUAACAGUCAUAGGCCAUGGAAACUAGGAGCACCAUCUCGCUGCCAGUGAAGAAAUGAACAAAGAAAAUCUGGGCCAGGCAGGCAUCAAAAGAAACAGUCUUGCGCUCAACCAGAAAGUCUGUAAUCAUUUUAAGGGUA, for which the self-cleavage was determined as 1.41.

On to GUUAACAGUCAUAGGCCAUGGAAACUAGGAGCACCAUUUCGCUGCCAGUGAAGAAAUGAACAAAGAAAAUCUGGGCCAGGCAGGCAUCAAAUGGAAUAGCCUUGCGCUCAACCAGAAAGUCAGUAAUCAUUUUAAGGGUA, for which the self-cleavage was 2.77.

As for GUUAACAGUCAUAGGCCAUGGAAACUAGGAGCACCAUUUCGCUGCCAGUGAAGAAAUGAACAAAGAGAAUCUGGGCCAGGCAGGCAUCAAAAGAAAUAGUCUUGCGCUCAACCAGGAAGUCUGUAAUCAUUUUAAGGGUA, the self-cleavage was 1.08.

Turning to GUUAACAGUCAUAGGCCAUGGAAACUAGGAGCACCAUUUCGCUACCAGUGAAGAAAUGAACAAAGAAAAUCUGGGCCUGGCAGGCAUCAAAAGAAAUAGUCUUGCGCUCAAUCAGAAAGUCUGUAAUCAUUUUAAGGGUU, the self-cleavage turned out to be 0.01.

For the variant GUUAACAGUCAUAGGCCAUGGAAACUAGGAGCACCAUUUCGCUGCCAGUGAAGAAAUGAACAAAGAAAAUCUGGGCCUGGCAGGCAGCAAAAGAAAUAGUCUUGCGCUCAACCGGAAAGUCUGUAAUCAUUUUAAAGGUA, the self-cleavage amounted to 0.08.

GUUAACAGUCAUAGGCCAUGGAAACUAGGAGCACCAUUUCGCUACCAGUGAAGAAAUGGACAAAGAAAAUCUGGGCCAGGCAGGCAUCAAAAGAAAUAGUCUUGCGCUCAACCAGAAAGUCUGUAAUCACUUUAAGGGUA: the self-cleavage was determined as 0.98.

GUUAACAGUCAUAGGCCAUGGAAACUAGGAGCACCAUUUCGCUGCCAGUGAAGAAAUGAACAAAGAAAAUCUGGGCCAGGUAGGCUUCAAAAGAAAUAGUCUCGCGCUCAACCAGAGAGUCUGUAAUCAUUUUAAGGGUA: the self-cleavage is 0.19.

With GUUAACAGUCAUAGGCCAUGGAAACUAGGAGCACCAUUUCGCAGCCAGUGAAGAAAUGGACAAAGAGAAUCUGGGCCAGGCAGGCAUCAAAAGAAAUAGUCUUGCGCUCAACCAGAAAGUCUGUAAUCAUUUUAAGGGUA, the self-cleavage came to 1.63.

GUUAACAGUCAUAGGCCAUGGAAACUAGGAGCACCAUUUCGCUGCCAGUGAAGAAAUGAACAAAGAAAAUCUGGGCCAGGCAGGCACCAAAAGAAGUAGUCUUGCGCUCAACCAGAAAGUCUGUAAUCAUUUUAAGGGUA: the self-cleavage turned out to be 2.05.

GUUAACAGCCAUAGGCCAUGGAAACUAGGAGCACCAUUUCGCUGCCAGUGAAGAAAUGAACAAAGAAAAUCUGGGCCAGGCAGGUAUCAAAAGAAAUAGUCUUGCGCUCAACCAGAAAGUCUGUAAUCAUUUUAAGGGUA: the self-cleavage was determined as 1.41.
